Data published in the supplement of paper PMC4967469.
pIC50: −log10 of the molar value. A lower IC50 marks a more sensitive line; a fit beyond the top or the lowest dose is shown as a bound at that dose. The AUC spans the tested range (256-fold, ending at the top dose) of the same fit; it is 1 without any effect and falls as sensitivity rises. For some of these results: Any top dose called inferred was derived from the fitted curves, not read from the paper.

Assays:
Assay in all cases: Viability of human cancer cell lines after 72 h of drug (GDSC screen)
[1] = compound: COc1cc2ncn(-c3cc(OCc4ccccc4C(F)(F)F)c(C(N)=O)s3)c2cc1OC [GW843682X]; conditions: top dose 0.256 µM
Experimental: (§1)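 Human cancer cell lines in 384-well plates, medium with 10% serum, drug for 72 h over a 256-fold dose range (nine 2-fold or five 4-fold steps up to the top dose). Adherent lines were fixed and stained with the nucleic acid dye Syto60, suspension lines read with resazurin; signal relative to control wells, capped at 0 and 100%. One two-parameter sigmoid per drug and line, fitted in a mixed model over all curves with the slope shared within a line.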

[2] = compound: CC1(C)CCC(c2ccc(Cl)cc2)=C(CN2CCN(c3ccc(C(=O)NS(=O)(=O)c4ccc(N[C@H](CCN5CCOCC5)CSc5ccccc5)c(S(=O)(=O)C(F)(F)F)c4)cc3)CC2)C1 [ABT-263]; conditions: top dose 2 µM; top dose inferred
Experimental: as §1

[3] = compound: COc1cc(/C=C/C(=O)N2CCC=CC2=O)cc(OC)c1OC [piperlongumine]; conditions: top dose 10 µM
Experimental: as §1

[4] = compound: Cn1cc(/C=C2\C(=O)Nc3cccnc32)c2ccccc21 [GW 441756]; conditions: top dose 2 µM; top dose inferred
Experimental: as §1

[5] = compound: CC(=O)Nc1nc(C)c(-c2ccc(Cl)c(S(=O)(=O)NCCO)c2)s1 [PIK-93]; conditions: top dose 20 µM
Experimental: as §1

Cell Line	AUC [1]	pIC50 [1]	AUC [2]	pIC50 [2]	AUC [3]	pIC50 [3]	AUC [4]	pIC50 [4]	AUC [5]	pIC50 [5]
CP67-MEL (melanoma, adherent)	0.806	< 6.59	–	–	–	–	–	–	–	–
EHEB (lymphoid neoplasm, suspension)	0.912	< 6.59	0.637	6.45	0.79	5.16	0.953	< 5.70	–	–
HCE-4 (oesophagus, adherent)	0.502	7.79	–	–	0.746	5.55	–	–	0.991	< 4.70
K-562 (chronic myeloid leukaemia, suspension)	0.662	7.35	0.98	< 5.70	–	–	–	–	–	–
KP-N-RT-BM-1 (neuroblastoma, semi-adherent)	0.754	6.95	–	–	–	–	–	–	–	–
SK-N-AS (neuroblastoma, adherent)	–	–	0.982	< 5.70	0.751	5.43	0.943	< 5.70	0.927	< 4.70
SK-N-SH (neuroblastoma, adherent)	–	–	0.903	< 5.70	0.625	5.86	0.98	< 5.70	0.779	5.09
SK-OV-3 (ovary, adherent)	–	–	0.963	< 5.70	0.834	5.05	0.958	< 5.70	0.76	5.06
SKG-IIIa (cervix, adherent)	–	–	0.942	< 5.70	0.935	< 5.00	0.912	< 5.70	0.983	< 4.70
SKN (uterus, adherent)	–	–	0.936	< 5.70	0.68	5.65	0.928	< 5.70	0.981	< 4.70
SKN-3 (head and neck, adherent)	–	–	0.941	< 5.70	0.696	5.61	0.967	< 5.70	0.916	< 4.70
SNG-M (endometrium, adherent)	–	–	0.936	< 5.70	0.57	6.01	0.934	< 5.70	0.817	4.96
SNU-61 (large intestine, adherent)	–	–	0.968	< 5.70	0.983	< 5.00	0.974	< 5.70	0.863	< 4.70
SNU-81 (large intestine, adherent)	–	–	0.979	< 5.70	0.798	5.17	0.98	< 5.70	0.963	< 4.70
SNU-182 (liver, adherent)	–	–	0.813	5.94	0.75	5.47	0.846	5.81	0.824	4.90
SNU-387 (liver, adherent)	–	–	0.964	< 5.70	0.795	5.27	0.899	< 5.70	0.577	5.68

Cell Line	AUC [1]	pIC50 [1]	AUC [2]	pIC50 [2]	AUC [3]	pIC50 [3]	AUC [4]	pIC50 [4]	AUC [5]	pIC50 [5]
SNU-407 (large intestine, adherent)	–	–	0.947	< 5.70	0.691	5.63	0.906	< 5.70	0.552	5.75
SNU-423 (liver, adherent)	–	–	0.874	< 5.70	0.686	5.64	0.904	< 5.70	0.762	5.08
SNU-449 (liver, adherent)	–	–	0.982	< 5.70	0.81	5.23	0.97	< 5.70	0.789	5.01
SNU-C5 (large intestine, adherent)	–	–	0.964	< 5.70	0.716	5.56	0.916	< 5.70	0.856	4.73
SU8686 (pancreas, adherent)	–	–	0.981	< 5.70	0.848	5.05	0.958	< 5.70	0.965	< 4.70
SU-DHL-5 (B-cell lymphoma, suspension)	–	–	0.993	< 5.70	0.587	5.99	0.994	< 5.70	0.381	6.19
SUIT-2 (pancreas, adherent)	–	–	0.981	< 5.70	0.823	5.20	0.986	< 5.70	0.527	5.83
SW13 (adrenal gland, adherent)	–	–	0.983	< 5.70	0.644	5.80	0.985	< 5.70	0.988	< 4.70
SW48 (large intestine, adherent)	–	–	0.926	< 5.70	0.82	5.24	0.987	< 5.70	0.886	< 4.70
SW620 (large intestine, adherent)	–	–	0.896	5.71	0.708	5.65	0.96	< 5.70	0.937	< 4.70
SW626 (ovary, adherent)	–	–	0.85	5.70	0.781	5.30	0.98	< 5.70	0.856	< 4.70
SW756 (cervix, adherent)	–	–	0.931	< 5.70	0.603	5.90	0.574	6.69	0.965	< 4.70
SW780 (bladder, adherent)	–	–	0.911	< 5.70	0.667	5.72	0.98	< 5.70	0.985	< 4.70
SW948 (large intestine, adherent)	–	–	0.965	< 5.70	0.909	< 5.00	0.937	< 5.70	0.89	< 4.70
SW1271 (small cell lung carcinoma, adherent)	–	–	0.984	< 5.70	0.765	5.38	0.949	< 5.70	0.737	5.17
SW1417 (large intestine, adherent)	–	–	0.719	6.23	0.975	< 5.00	0.983	< 5.70	0.934	< 4.70
